Where a name gives a salt, the structure may show the parent alone. ± gives the standard deviation of the averaged measurements. In all, about 2,600 compounds were measured (“total cell number (DAPI+ nuclei) relative to DMSO vehicle control”: median about -1.4, lowest 2% from about -23 on). The list shows a part of the results.
What follows are molecules tested on jimpy (Plp1 jimpy) mouse iPSC-derived oligodendrocyte progenitor cells (assay: total cell number (DAPI+ nuclei) relative to DMSO vehicle control (SDs above negative control mean); higher = more surviving cells). Conditions: 10 µM; 3 days.
Method: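 Primary phenotypic screen of >3,000 bioactive compounds (Selleck L1700 and Sigma LO1280 libraries) at a single dose of 10 µM. Compounds were added to jimpy (Plp1 mutant) mouse iPSC-derived OPCs at the start of thyroid hormone-induced oligodendrocyte differentiation, one well per compound in 384-well plates. After 3 days cells were stained for MBP, Sox10 and DAPI and imaged with an Operetta system. MBP+ oligodendrocyte number and total cell number were expressed as the number of SDs above the mean of the DMSO negative control on the same plate (n=16 control wells per plate). Hits were defined as >=4 SD for oligodendrocytes and >=2 SD for total cells.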

| SMILES | total cell number |
| --- | --- |
| CCc1cncnc1N1CCN(Cc2nc3ccc(C(F)(F)F)cc3[nH]2)CC1 | -0.485 |
| NC(=S)c1ccc[n+]([C@@H]2O[C@@H](COP(=O)([O-])OP(=O)(O)OC[C@H]3O[C@@H](n4cnc5c(N)ncnc54)C(OP(=O)(O)O)[C@H]3O)C(O)C2O)c1 (stereo partly specified) [Thio-NADP sodium] | -1.17 |
| NS(=O)(=O)c1cc(C(=O)O)c(NCc2ccco2)cc1Cl [Furosemide] | -1.36 ± 2.3 |
| O=C(O)c1cc(=O)c2ccccc2o1 [Chromocarb] | 0.486 |
| CCOc1cc([C@@H](CS(C)(=O)=O)N2C(=O)c3cccc(NC(C)=O)c3C2=O)ccc1OC | -1.74 |
| CCOC(=O)[C@H](CCc1ccccc1)N[C@@H](C)C(=O)N1[C@H](C(=O)O)C[C@@H]2CCC[C@@H]21 [Ramipril] | 0.384 |
| NC(=O)c1ncn([C@@H]2O[C@H](CO)[C@@H](O)[C@H]2O)n1 [Ribavirin] | -1.75 ± 1.2 |
| CC(C)COCC(CN(Cc1ccccc1)c1ccccc1)N1CCCC1 (stereo unspecified) [Bepridil hydrochloride] | -1.61 |
| CNC(=O)c1ccc(-c2cnc3ncc(Cc4ccc5ncccc5c4)n3n2)cc1F | -5.79 |
| Cn1c(=O)c2[nH]c(C3CCCC3)nc2n(C)c1=O [8-Cyclopentyl-1,3-dimethylxanthine] | -2.36 |
| Cc1ccc(S(=O)(=O)n2c(N)nc3ccccc32)cc1 [ML130 (Nodinitib-1)] | -0.632 |
| COc1ccc(-c2nc3cc(C4=NNC(=O)CC4C)ccc3[nH]2)cc1 (stereo unspecified) [Pimobendan] | 1.13 |
| NCC(=O)Nc1ccc(-n2nc(C(F)(F)F)cc2-c2ccc3c(ccc4ccccc43)c2)cc1 | -26.5 |
| COc1cc2ncnc(Oc3cccc(NC(=O)Nc4cc(C(C)(C)C(F)(F)F)on4)c3)c2cc1OC | -0.0576 |
| O=C(COc1ccc(Cl)cc1)NC1CCC(NC(=O)COc2ccc(Cl)cc2)CC1 (stereo unspecified) | -1.54 |
| O=c1c(O)c(-c2ccc(O)c(O)c2)oc2cc(O)ccc12 [Fisetin] | -5.2 |
| CNS(=O)(=O)Cc1ccc2[nH]cc(CCN(C)C)c2c1 [Sumatriptan Succinate] | 1.76 |
| CN[C@H](CC(C)C)C(=O)N[C@H]1C(=O)N[C@@H](CC(N)=O)C(=O)N[C@H]2C(=O)N[C@H]3C(=O)N[C@H](C(=O)N[C@H](C(=O)O)c4cc(O)cc(O)c4-c4cc3ccc4O)[C@H](O)c3ccc(c(Cl)c3)Oc3cc2cc(c3O[C@@H]2O[C@H](CO)[C@@H](O)[C@H](O)[C@H]2O[C@H]2C[C@](C)(N)[C@H](O)[C@H](C)O2)Oc2ccc(cc2Cl)[C@H]1O [Vancomycin hydrochloride from Streptomyces orientalis] | -1.32 |
| NS(=O)(=O)c1cc2c(cc1Cl)N=CNS2(=O)=O [Chlorothiazide] | 0.468 ± 1.3 |
| COc1ccc(-c2cnc3c(-c4cccc5ncccc45)cnn3c2)cc1 | -5.27 |
| Nc1ccc(-c2ccc3ccccc3n2)cc1 [BF-170 hydrochloride] | -1.72 |
| CC[C@H]1OC(=O)[C@H](C)[C@@H](O[C@H]2C[C@@](C)(OC)[C@@H](O)[C@H](C)O2)[C@H](C)[C@@H](O[C@@H]2O[C@H](C)C[C@H](N(C)C)[C@H]2O)[C@](C)(OC)C[C@@H](C)C(=O)[C@H](C)[C@@H](O)[C@]1(C)O [Clarithromycin] | -2.62 |
| O=[N+]([O-])c1ccc2c(c1)S(=O)(=O)C=C2 [Stattic] | -13.1 ± 3.5 |
| O=C(Nc1nc2ccccc2n1CCN1CCOCC1)c1cccc([N+](=O)[O-])c1 [IRAK-1/4 Inhibitor I] | -0.22 |
| CCCCC1=NC2(CCCC2)C(=O)N1Cc1ccc(-c2ccccc2-c2nnn[nH]2)cc1 [Irbesartan] | -0.973 |
| NC(=O)Cc1cccc(C(=O)c2ccccc2)c1N [Nepafenac] | 0.954 |

| SMILES | total cell number |
| --- | --- |
| C[C@H]1COC2=C1C(=O)C(=O)c1c2ccc2c1CCCC2(C)C [Cryptotanshinone] | -0.222 |
| CC(=O)SCC[N+](C)(C)C [Acetylthiocholine chloride] | -0.626 |
| CN(C)CC[C@H](CSc1ccccc1)Nc1ccc(S(=O)(=O)NC(=O)c2ccc(N3CCN(Cc4ccccc4-c4ccc(Cl)cc4)CC3)cc2)cc1[N+](=O)[O-] | -23.1 |
| NC(N)=N/N=C/c1ccccc1Cl [Sephin-1] | -3.98 |
| CN(C)C(=O)COC(=O)Cc1ccc(OC(=O)c2ccc(NC(=N)N)cc2)cc1 [Camostat Mesilate] | -0.216 |
| CC(C)NCC(O)c1ccc(NS(C)(=O)=O)cc1 (racemic) [(±)-Sotalol hydrochloride] | -1.64 |
| CC(C)NCC(O)c1ccc(NS(C)(=O)=O)cc1 (racemic) [Sotalol] | -0.808 |
| N=C(N)NC(=O)c1nc(Cl)c(N)nc1N [Amiloride HCl] | -0.152 |
| N=C(N)NC(=O)c1nc(Cl)c(N)nc1N [Amiloride hydrochloride] | -1.83 |
| COc1cccc(OC)c1OCCNCC1COc2ccccc2O1 (stereo unspecified) [WB-4101 hydrochloride] | 0.524 |
| O=C1NCN(c2ccccc2)C12CCN(CCCC(c1ccc(F)cc1)c1ccc(F)cc1)CC2 [Fluspirilene] | -7.98 |
| Nc1ccccc1NC(=O)c1ccc(CNC(=O)OCc2cccnc2)cc1 [Entinostat (MS-275)] | -12.6 |
| CCCCOc1c(C(=O)c2c(F)cc(C)cc2F)c[nH]c2nncc1-2 | 0.134 |
| N#CC(=C(/N)Sc1ccccc1N)/C(C#N)=C(/N)Sc1ccccc1N | -4.1 |
| NS(=O)(=O)c1cccc2c1c([N+](=O)[O-])cc1nc(O)c(O)nc12 [NBQX disodium] | -1.95 |
| NC(N)=NCc1cccc(I)c1 [m-Iodobenzylguanidine hemisulfate] | 7.97 |
| C[C@@H](Oc1cc(-n2cnc3ccc(CN4CCN(C)CC4)cc32)sc1C(N)=O)c1ccccc1C(F)(F)F | -14.7 |
| COc1ccc(S(=O)(=O)Nc2nc(-c3cccc([N+](=O)[O-])c3)cs2)cc1OC | -0.431 |
| CNCC[C@H](Oc1cccc2ccccc12)c1cccs1 [Duloxetine HCl] | -16 |
| CC1(COc2ccc3c(c2)ncn3-c2ccc3cccc(N4CCC(N)CC4)c3n2)COC1 | -12.2 |
| COc1cc(Cc2cnc(N)nc2N)cc(OC)c1OC [Trimethoprim] | -0.718 ± 0.086 |
| NC(=O)C(=O)O [Sodium Oxamate] | -2.27 |
| COc1cc2c(cc1OC)CN(CCc1ccc(NC(=O)c3cc(OC)c(OC)cc3NC(=O)c3cnc4ccccc4c3)cc1)CC2 [Tariquidar] | -7 |
| C=C1C[C@@]23CC[C@H]4[C@@](C)(CCC[C@@]4(C)C(=O)O[C@@H]4O[C@H](CO)[C@@H](O)[C@H](O)[C@H]4O)[C@@H]2CC[C@]1(O[C@@H]1O[C@H](CO)[C@@H](O)[C@H](O)[C@H]1O[C@@H]1O[C@H](CO)[C@@H](O)[C@H](O)[C@H]1O)C3 [Stevioside] | -1.65 |
| COc1ccc([C@H]2CNC(=O)C2)cc1OC1CCCC1 [S- (+)-Rolipram] | 1.21 |
| CN(C)c1cc2c(Nc3ccc4c(cnn4Cc4ccccc4)c3)ncnc2cn1 | -5.66 |

| SMILES | total cell number |
| --- | --- |
| O=C(Nc1ccccc1)c1ccccc1O [Salicylanilide] | -0.446 |
| CC(=O)c1cc([N+](=O)[O-])c(Sc2cccc(Cl)c2Cl)s1 | -9.61 |
| CS(=O)(=O)c1ccc(C2=C(c3ccccc3)C(=O)OC2)cc1 [Rofecoxib] | -2.37 ± 1.3 |
| Cn1c(=O)c2[nH]cnc2n(C)c1=O [Aminophylline] | -4.94 |
| Cn1c(=O)c2[nH]cnc2n(C)c1=O [Aminophylline ethylenediamine] | -0.771 |
| Cc1[nH]c(=O)c(C#N)cc1-c1ccncc1 [Milrinone] | -0.109 ± 0.26 |
| Cc1ccnc2c1NC(=O)c1cccnc1N2C1CC1 [Nevirapine] | -0.509 |
| CN(C)CCC=C1c2ccccc2CCc2ccccc21 [Amitriptyline HCl] | -4.94 |
| CN(C)CCC=C1c2ccccc2CCc2ccccc21 [Amitriptyline hydrochloride] | -5.71 |
| O=C1CCC(N2C(=O)c3ccccc3C2=O)C(=O)N1 (racemic) [Thalidomide] | 3.22 |
| O=C1CCC(N2C(=O)c3ccccc3C2=O)C(=O)N1 (racemic) [(±)-Thalidomide] | -2.18 |
| N=C(N)N [Guanidine HCl] | 1.61 |
| C=C[C@H]1CN2CC[C@H]1C[C@@H]2[C@@H](O)c1ccnc2ccc(OC)cc12 [Quinidine sulfate] | -1.23 |
| CNC(=O)[C@H]1O[C@@H](n2cnc3c(NCc4cccc(I)c4)ncnc32)[C@H](O)[C@@H]1O | -2.05 |
| CCc1nc(-c2cccc(C)c2)c(-c2ccnc(NC(=O)c3ccccc3)c2)s1 | -3.27 |
| Cc1cccc(C)c1NC(=O)C1CCCCN1C (stereo unspecified) [Mepivacaine HCl] | -0.436 |
| COc1cc(/C=C/C(=O)N2CCC=CC2=O)cc(OC)c1OC [Piperlongumine] | -8.21 |
| Cc1ncc([N+](=O)[O-])n1CC(O)CCl (stereo unspecified) [Ornidazole] | -1.54 |
| N#Cc1ccc2[nH]cc(CCCCN3CCN(c4ccc5oc(C(N)=O)cc5c4)CC3)c2c1 [Vilazodone HCl] | -0.542 |
| CN1C(C(=O)Nc2ccccn2)=C(O)c2sccc2S1(=O)=O [Tenoxicam] | -1.36 |
| CSc1ccc(C(=O)c2[nH]c(=O)[nH]c2C)cc1 [Enoximone] | -0.12 |
| COc1ccc(-c2ccc(=N)n(CCCC(=O)O)n2)cc1 | -0.277 |
| CCCCCCCCCCC[C@@H](C[C@@H]1OC(=O)[C@H]1CCCCCC)OC(=O)[C@H](CC(C)C)NC=O [Orlistat] | -1.79 |
| CC1(C)CCC(CN2CCN(c3ccc(C(=O)NS(=O)(=O)c4ccc(NCC5CCOCC5)c([N+](=O)[O-])c4)c(Oc4cnc5[nH]ccc5c4)c3)CC2)=C(c2ccc(Cl)cc2)C1 | -3.38 |

— the supplement of paper PMC6135742
